Variants at the background level are over-represented here.
B1: TPR 5TU (parent)
chain: GGAUCUUCUCGAUCUAACAAAAAAGACAAAUCUGCCACAAAGCUUGAGAGCAUCUUCGGAUGCAGAGGCGGCAGCCUUCGGUGGCGCGAUAGCGCCAACGUUCUCAACUAUGACACGCAAAACGCGUGCUCCGUUGAAUGGAGUUUAUCAUG

Variants of: B1
Experiment: polymerase ribozyme fitness, log enrichment relative to wild type (log ratio); higher = more active; in vitro selection for triplet polymerase activity
In short: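 Genotype fitness is the logarithm of its enrichment divided by wild-type enrichment, using inverse-variance-weighted averages of replicates. That logarithm is base 2. Enrichment was measured by Illumina sequencing of input and output libraries from one triplicate in vitro selection round, with frozen incubation at −7 °C, on PCR-built, transcribed mutant libraries of each subunit of a heterodimeric triplet polymerase ribozyme, retaining genotypes with ≥10 input reads and ≥1 read per output.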

Polymerase ribozyme fitness (log ratio), ≤ -4.2:
U4G A20U C93G U109A A138G
U4C U55A C87G A98U C132A
C5A U7A U55A G70U C85G G128A U144C
A3U A20C A21U G48A C57U G59A A66C G68C C85U C108U U134C G140U
U4G U6G A22G U55A G67A A122C U127G
C5G A21C C35G C85U C99A
C5G A20C A41C G59C G94C G136U
A3U A28U C93U
A3G C35A U144A
C5G A12C C36U G50C G58C A91G G124A G140A
U4A C36A U55C U82A A119C
A3G C18G A21U C75G C85U
U4A A47C A60U G84U C93U A98U C108U C131A
C5A A17C C18U C76G U82G C95U A110G C125A U134C
U4A A26G G92A A122C
A3U C27G G50C C95U A150G
U4C G48U A49C G68A C79G C105A
C5G A12C C87A U101G G124A A142C
A3U U33A U53A A91U C95G A110C A121G U135C A137U
A3U A26G A30U G59A G74C C95U
C5G A22U G58U A60U A64U G83C
C5A U77A C87A
A3G A39U A66U G71A G88A C96G C103G A107U A147C G152U
C5G A21U C38A U45G U56A C57A C114A U144G
U4A C8A A52G C87U A98C
A3U G34A A60C C85U A98G C125U
U4C G42C G50U A97G A110U
C5A A22U A23U U53A G136C U148A U151G
A3G C63U A66C A73U C85A A91C U109G
A3G U15A U90C G94U G124A C125U
A3G C10G A41G C76A U145A
A3G U55A A66U C76U G81U C85U A119U A137G U144G
A3G U6A U31G C32U A41C C51U G94U C96A G136U
U4A A19C A52U A60U G62C G80U G88A C103U C123U G133U A137U
A3G U7G C27U G68C C99G C125U U127G
A3U A22G U45C A49G G80C G92C G126U
C5G A22U C79U C85G A107G
A3U A37U G65C C85U C87G
C5G A28C A73G
U4A G48C C75A G81C A91G G92C C123A U145G
C5A A30C C38G U61A G68C C96A
U4C A28C C75A G92A C108G
C5A G42C C93G U146G
A3U A12C A23C A29G U55G A73U C93G
C5A A19U A24C C54G U56A G86U A122G
U4G C32A C51G G80A G83C
U4A U15G A91C C114U C125A
U4A A22U C63U G67A C75A G94A C96U
C5A G62A C69A C75G A115G
A3U C8A C18U A47C A49U C93U U102G A107G G133U
A3U A47U A60G A64G C75U G92U C114U C118G
U4A A37C U61A A66G G133U U144A
U4C C5G C32A A40C U82C A98G C103U A113C A150C
C5G A17C A60G A115C U135C U148C A150G
C5G A21U C76G G92U C96A C114G U127A
U4A A21G C76A C85A G86U C95A
U4G C18U U31A A41C G50A A52C U56A
A3U C35A U77G G83A A119G
A3U A28U G50A A89G C95A A97C U139C A142U
U4C A26U A52U C87A C95A U109A U145G U146G
U4A U56A A91U C116G U130G
C5G A12G A21G A22G C75G
U4C C35U A142G U148A
U4C U33A A40U U82G C96G C108U C118U U139C U148A
A3U U82A C87A
U4C G25A A41C U44A A64U C85A C87G C103G U145A
C5G A24U G58U C69U C76A C79U G80A A121C
C5A A49C A91U G94U C96U A120G G133C
C5A A47G C79A G83U G140A U146G
U4G C51U G67U G92U G128C
C5G A24G A26G A113G C116G
U4C A52C U53A G70C C85A U102G C108A G141U
U4A A49G C87A
U4A A26G C54G A60C G81U G86A G112U
U4C A19C U31A C38U U82G C93A U134G
U4G A37U A47C A64G G84U A107U A150G
U4G C8G G34U C85U G94A C108G G124C A138U
A3U A37G C87U U130C G143A
A3U A21U G74C U82G C87U A150C
C5G A24U A29G A49C C57U U82G A91U A98C C131U
C5A C18U G59A G83A G86A C93U G94A A97G
U4G C8G C14U A19C A49G C118G U146G
A3U A37U G42C C57U C95U G136U
U4G U31A C93A A107U A121U C149U A150G
U4A U9G C75A C85A G94A C95A A110G
U4G G42A A47U G62U C63A A73G C87G U127A U134A A137U
A3G U6A A39U G84U U134A U144C A150U
U4C C85G A107U
A3U U15G G71C G100A U135A G141U
U4A C14A U44G G92U A106G A113C
U4A U33A G48C C57U C85U A115G C129G G141U
U4G G48A G88C C123U U134G A137C
U4A A39C U53A C96U C108U A120U C125U
A3U C14A A22C C27A U77A C87U G133U
U4A C8U C108G G140C
A3G C75G A91U C95U A97C C108A A122C U127A C131U G140C A147C
U4C C38U G59C G80C U104C G140U
C5A C8G A26U C38U U44A A47C C118A A137C
A3U A41G C51A C99A U111C
U4G A24C C57G A64C
A3U C10A A47G U77A C87A G141C
A3U G50C G67A C87U U144C
A3U C8G A12U U31G U56G G86C G88A C114U
C5G A12U C35U A64U G71A U101C A137U
U4G C10U C32U U53A U55G G94U
U4C A16C A19U G86U C96A C108A
A3U C85U C96U C108G G140C
A3U C76G A89U C93U G100A A137C G143U U144A
U4C G81A C87U C99A A137C U144C
U4G C5G A29G A52U G67U C79G G83A
A3U A12C G48C C57U C93A A115C G141A
C5A C38U G59A C87G C103A A121U G126A U146C
A3U C54G C85G
U4G U9G A30C A40C U45A A47C G92U G143A
A3G U31G G50A C95G C118G A138C U146A G152U
U4C C27U G62C C85A A138U
U4G U13G A20U A24G C36A U55A G92A A110U
A3G C10A A12G G59U A66G C72G C85U
A3U A30C U31G C79U A115G
A3U A52C C96A A115C
U4G A21G A28U G81A A89C A91G C129G
A3U U45A A91C G124A U127A A147C
U4C C35G C96U
A3U A29C U55A C95U C131U
A3G A47C C57G G92U C103G C114U C125U G141U
C5A G83A C118G U127G
A3U C51A U55A C116U C123U A142C
U4A C18U A64C G68A C79G
A3U A28C A47C C85U C118U
U4A A21G G34U G67C G92A C95A C96G U151G
U4C A16U C38A A52G C76U C85A C96A C125U
A3U U6G C32G G42A A52C U77A G83A C125G G141C G143A
A3G C14U G34A G48A C85A G126U G136A U144G
U4G A60C G83A A142G
A3G G50C A120G C129A
A3U U4A A12U U44A C85A A121G U135G A150C
U4A G83C G94U U148G

Polymerase ribozyme fitness (log ratio), -2.38:
C5A U7C A22U C103G

Polymerase ribozyme fitness (log ratio), -1.99:
A3U U31C C57U G86A

Polymerase ribozyme fitness (log ratio), -0.112:
U4G A106G

Polymerase ribozyme fitness (log ratio), -1.78:
A3G C93U

Polymerase ribozyme fitness (log ratio), -3.39:
C5A C69G G84A C108U

Polymerase ribozyme fitness (log ratio), -3.75:
A3G C63U A73G G86U U135A

Polymerase ribozyme fitness (log ratio), 0.223:
A3U C57U

Polymerase ribozyme fitness (log ratio), -3.62:
C5A U148G

Polymerase ribozyme fitness (log ratio), -4.11:
U4A C8A U56A A122G G141A
C5G A20C G48C U56A G62A

Polymerase ribozyme fitness (log ratio), -2.8:
U4C A20G C85A A98C A115G

Polymerase ribozyme fitness (log ratio), -0.414:
U4G A19C G58U C69U C96A

Polymerase ribozyme fitness (log ratio), -3.07:
U4G A37C C87U A122G C125A

Polymerase ribozyme fitness (log ratio), -2.12:
A3G U56C C87A G92C

Polymerase ribozyme fitness (log ratio), -1:
A3U U56A

Polymerase ribozyme fitness (log ratio), -0.338:
U4A A21C G80A

Polymerase ribozyme fitness (log ratio), -3.64:
U4G C69G C96U A142C

Polymerase ribozyme fitness (log ratio), -0.997:
A3U C57A

Polymerase ribozyme fitness (log ratio), -2.01:
U4G C114U

Polymerase ribozyme fitness (log ratio), -1.89:
A3U C8U C96U

Polymerase ribozyme fitness (log ratio), -4:
A3G U13C A98U A107U

Polymerase ribozyme fitness (log ratio), -2.99:
A3U U31G C36U C96A

Polymerase ribozyme fitness (log ratio), -0.269:
U4G C5A U55G

Polymerase ribozyme fitness (log ratio), -2.06:
U4C A19U G86U

Polymerase ribozyme fitness (log ratio), -3.54:
U4G C38U G58A C95U C96U U127C

Polymerase ribozyme fitness (log ratio), -0.767:
U4C U55A

Polymerase ribozyme fitness (log ratio), -1.05:
A3G C85U

Polymerase ribozyme fitness (log ratio), -3.2:
U4G G88U

Polymerase ribozyme fitness (log ratio), -3.94:
A3U C87G

Polymerase ribozyme fitness (log ratio), -3.98:
U4C A22C G48U C93G A122C

From the RNAGym collection of RNA variant scans (doi:10.1073/pnas.2313332121)
